Assay results taken from PubChem BioAssay AID624330 (Southern Research Specialized Biocontainment Screening …, 2012).
About 2,100 (0.62%) of roughly 340,000 compounds were called active. Inconclusive results, whose numbers are uncertain, are shown with a selection of clear calls.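 The calls were made as follows: active = first-screen hits whose inhibition reached a set limit at any dose in the follow-up dose series; inconclusive = inhibition above the set first-screen limit but never retested; inactive = the rest.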

Molecular target: Rac GTPase-activating protein 1 (Homo sapiens) (UniProt Q9H0H5)
Chain of UniProt Q9H0H5 (Q9H0H5 whole entry, looked up): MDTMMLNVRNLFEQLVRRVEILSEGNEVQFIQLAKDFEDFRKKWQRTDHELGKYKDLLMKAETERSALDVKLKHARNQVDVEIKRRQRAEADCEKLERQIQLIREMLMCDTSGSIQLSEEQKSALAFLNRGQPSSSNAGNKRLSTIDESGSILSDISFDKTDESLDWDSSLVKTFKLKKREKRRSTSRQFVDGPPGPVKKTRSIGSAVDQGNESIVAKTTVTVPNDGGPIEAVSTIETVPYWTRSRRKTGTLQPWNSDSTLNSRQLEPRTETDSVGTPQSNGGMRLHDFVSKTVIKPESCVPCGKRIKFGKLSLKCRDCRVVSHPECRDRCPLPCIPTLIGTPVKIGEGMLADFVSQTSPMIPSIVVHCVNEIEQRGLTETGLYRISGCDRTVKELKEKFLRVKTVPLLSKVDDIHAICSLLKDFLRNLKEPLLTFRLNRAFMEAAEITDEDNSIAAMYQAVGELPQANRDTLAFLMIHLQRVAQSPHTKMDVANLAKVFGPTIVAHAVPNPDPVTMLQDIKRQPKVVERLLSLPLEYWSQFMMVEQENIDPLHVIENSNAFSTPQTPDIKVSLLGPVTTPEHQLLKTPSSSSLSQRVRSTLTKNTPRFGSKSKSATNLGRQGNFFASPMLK
Experiment: blockers of MgcRacGAP-driven Rac1 GTP hydrolysis – biochemical, ADP Hunter fluorescence, primary and confirmatory, confirmation (AID 624330);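 also: fluorescence reports GDP produced by GAP-driven GTP hydrolysis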
Settings: MgcRacGAP-stimulated Rac1 GTP hydrolysis, at 30 µM, stronger effect = higher value, GST-tagged Rac1 F28L mutant substrate

inhibition, inactive:
O=c1[nH]n(-c2ccc(Cl)cc2)c2ncccc12 31.6%
COc1ccccc1C(=O)N/N=C(\C)c1ccc(NC(=O)Cc2ccccc2)cc1 7.02%
CCOc1ccc(NC(=O)COc2ccc(-n3cnnn3)cc2)cc1 6.31%
O=S(=O)(Cc1ccccc1)Nc1ccc(F)cc1 8.87%
Cc1cccc(N2C(=O)Cc3ccccc3C2=O)c1 8.26%
O=C(CNC(=O)c1ccccc1)NCCc1ccc(O)c(O)c1 10.9%
Cc1ccn2c(C(C)O)nnc2c1 (stereo unspecified) 11.7%
COc1ccc(/C=N/NC2=NCCCCC2)cc1 -0.36%
CC(C)c1ccc(NC2CCCN(C(=O)CN3CCOC3=O)C2)cc1 (stereo unspecified) 8.4%
CC(Sc1nnnn1-c1ccc(O)cc1)C(=O)NNC(=O)c1ccc(F)cc1 (stereo unspecified) 2.11%
CCOc1cc(/C=N/n2nnnc2N)ccc1OCc1c(C)no[n+]1[O-] 7.97%
Nc1ccc(C(=O)Nc2ccc(Nc3ccncc3)cc2)cc1 5.48%
Cc1sc2ncn(CC(=O)N3CCCCC3)c(=O)c2c1C 6.45%
O=C(c1ccccc1F)N1CCN(c2ccc([N+](=O)[O-])c(NCC3CCCO3)c2)CC1 (stereo unspecified) 11.1%
Cc1cccc(OCC(=O)Nc2nnc(S(=O)(=O)N3CCCCCC3)s2)c1 9.88%
O=C(COC(=O)c1cc(=O)[nH]c(=O)[nH]1)NCc1ccccc1 3.71%
Cc1sc2ncnc(N(C)Cc3cccs3)c2c1C 10.9%
Cc1ccc(Cn2ccc(NC(=O)c3noc4c3CCCC4)n2)cc1 -0.93%
CN(C)c1ccc(C(=O)NN2C(=O)c3ccccc3C2=O)cc1 8.64%
CCOc1ccc(-c2csc(NC(=O)c3cccc(N4C(=O)CCC4=O)c3)n2)cc1 1.94%
CC(C)(c1ccc(O)c([N+](=O)[O-])c1)c1ccc(O)c([N+](=O)[O-])c1 5%
Cc1cc2nc(-c3ccccc3)cc(=O)n2[nH]1 14.4%
O=C(Nc1ccc(Nc2ccccc2)cc1)C(Cl)Cl 25.5%
CC(=O)/C(N=Nc1c(C)n(C)n(-c2ccccc2)c1=O)=C(\C)O 0.69%
O=C(NCCC1=CCCCC1)C(=O)c1c[nH]c2ccccc12 1.95%
CCn1cc(C(=O)N2CCN(c3ccccn3)CC2)c2cc(OC)c(OC)cc2c1=O -4.67%
CN1CC(=O)N/C1=N\C(=O)Nc1ccc2c(c1)N(C)C(=O)CS2 2.74%
COCCn1c(SCC(=O)c2ccc3c(c2)OCCO3)nnc1-c1ccco1 8.82%
Cc1cccc(OCC(=O)NNC(=O)C2CCN(c3ncnc4sc(C)c(C)c34)CC2)c1 12.2%
CN(C)CC1CCC/C(=C\c2ccc(OC(=O)c3ccc(Cl)cc3)cc2)C1=O (stereo unspecified) 2.37%
Cc1ccc(NC2=C([N+](=O)[O-])CS(=O)(=O)C2)cc1 7.24%
CN(CC(=O)Nc1ccccc1N1CCCC1)S(=O)(=O)c1ccc(F)cc1 3.64%
c1ccc(N2CCN(c3nc4ccccc4n4nnnc34)CC2)cc1 2.04%
COc1ccc(NC(=O)COc2nsnc2N2CCCCC2)cc1 17.2%
CCCCn1c(N)c(N(CCOC)C(=O)CCN2C(=O)C3CC=CCC3C2=O)c(=O)[nH]c1=O (stereo unspecified) 9.87%
COC(=O)C[C@H]1c2cc(F)ccc2S(=O)(=O)N1c1ccc(N(C)C)cc1 22.8%
CCN(CC)CCN(C(=O)c1cc2ccccc2cc1OC)c1nc2ccc(F)cc2s1 6.61%
Cc1nn(-c2ccccc2)c(C)c1-c1cc(C(=O)N/N=C/c2ccc(O)cc2)[nH]n1 19.3%
COc1ccc(NC2CCCN(C(=O)CN3CCOC3=O)C2)cc1OC (stereo unspecified) 22.5%
O=c1[nH]c(/C=C\c2cccc(O)c2)nc(O)c1[N+](=O)[O-] 13.1%
Cc1[nH]c(-c2ccc(F)cc2)cc1C(=O)N1CCN(c2cccc(Cl)c2)CC1 21.1%

inhibition, inconclusive:
COCCNC(=S)N/N=C(\C)c1ccc(O)cc1 100%
O=C1NCCCc2c1oc1cc(Br)c(O)c(Br)c21 40%
COc1ccc(N2CCN(C(=O)CCc3nnc4ccc(N5CCCC5)nn34)CC2)cc1 33.9%
O=C(c1ccccc1)N1CCN(Cc2ccccc2C(F)(F)F)CC1 32.8%
Nc1cc(CN2C(=O)c3ccccc3C2=O)cc(Cl)c1O 98.7%
CC1(C)OC(=O)C(=Cc2ccc(-c3ccc(Cl)c(C(=O)O)c3)o2)C(=O)O1 55.7%
Oc1ccc(N2CCN(Cc3nc4ccccc4[nH]3)CC2)cc1 53.2%
CCOc1cccc(OCCCCN2CCOCC2)c1 34.9%
Cc1ccc(N2CCN(Cc3ccccc3)CC2=O)c(C)c1 33.8%
Nc1c(/C=C2/C=CC(=O)C(O)=C2)c(=O)nc2sc(CC(=O)N3CCCCC3)nn12 44.1%
COc1ccccc1OCCn1ccnc1 35.5%
Cc1cc(NC(=O)CN2CCN(c3ccc(O)cc3)CC2)no1 55.3%
COc1cccc(C=Nc2ccc(N3CCOCC3)cc2)c1O 95.1%
COc1cc(C#CC#CCN2CCCCC2)ccc1O 73.4%
COc1ccc(NCC(=O)n2c(C)c(C)c3ccccc32)cc1OC 34.1%
O=C(CCNC(=O)c1ccccc1Cl)N/N=C\c1ccc(O)cc1 37.2%
O=c1c2ccccc2sn1-c1cc(S(=O)(=O)N2CCOCC2)ccc1N1CCCC1 65.4%
COc1ccc(N2CCN(C(CNC(=O)c3cccs3)c3ccco3)CC2)cc1 (stereo unspecified) 33.2%
NC(=O)c1sc(=S)n2c1[nH]c(=O)c1sccc12 34.1%
CCc1nnc(N/N=C/c2ccc(O)c(OC)c2)n1N 47.4%
COc1cccc(CN(C)CC(=O)NCc2ccc(C)cc2)c1 34.1%
O=C(O)c1cccc(-n2cccc2/C=C2/NC(=O)N(c3ccc(Cl)cc3)C2=O)c1 88.9%
O=C(NCCCN1CCOCC1)c1sc2cc([N+](=O)[O-])ccc2c1Cl 48.6%
CCOC(=O)C1CCN(CC(O)COCc2ccccc2)CC1 (stereo unspecified) 34.1%
O=C(O)CCCN1C(=O)/C(=C/C=C/c2ccco2)SC1=S 78.5%
O=C(c1ccco1)N1CCN(Cc2ccc(Cl)cc2)CC1 32.5%
CCc1ccc(NC(=O)C(C)OC(=O)/C=C/c2ccc(O)c(OC)c2)cc1 (stereo unspecified) 45%
O=S(=O)(/N=S1/CC=CCN1S(=O)(=O)c1ccccc1)c1ccccc1 (stereo unspecified) 37%
COC(=O)c1cc(NCc2ccc3c(c2)OCO3)ccc1N1CCOCC1 41%
COc1ccc(CNc2ncc(-c3ccccc3)n2C)cc1 35.4%
COc1ccc(CNC(=S)N2CCN(Cc3ccccc3)CC2)cc1 32.7%
COCCCNC(=S)N1CCN(C)CC1 33.4%
COc1cccc(C(=O)N2CCN(Cc3cccc(F)c3)CC2)c1 33.1%
COc1ccc(CN2CCN(C(=O)c3cccc4ccccc34)CC2)cc1Br 32.3%
O=C1NC(=S)NC1=Cc1ccccc1O 33.8%
O=C(OCC(=O)N1CCN(C(=O)c2ccco2)CC1)c1cc(-c2ccco2)nc2ccccc12 42.5%
Nc1ccc(N2CCOCC2)c2nonc12 90%
CCOC(=O)C[n+]1c(C)sc2ccc(OC)cc21 34.3%
Cc1sc2nc(N)sc2c1C 108%
O=c1oc2c3c4c(cc2s1)CCCN4CCC3 39.3%
COc1ccc(OCCCCN2CCC(C)CC2)cc1 32%
CCOc1cc(/C=C/c2ccc3cccc([N+](=O)[O-])c3n2)ccc1O 35.6%
C/C(=N\Nc1ccccn1)c1ccc(N2CCOCC2)cc1 35.2%
CCOC(=O)/C(=C\c1cn(C)c2ccccc12)[N+](=O)[O-] 33%
COCCCNCCCOc1ccc(C(C)(C)c2ccccc2)cc1 32.8%
COc1cccc(OC)c1C(=O)N1CCN(Cc2ccccc2C(F)(F)F)CC1 35%
O=C(O)/C=C/c1ccc(O)c(O)c1 34%
c1ccc(CNC2=NCCCC2)cc1 32.9%
O=C(O)c1ccccc1C(=O)Nc1n[nH]c(=S)s1 32.9%
COc1ccc(OC)c(CNc2ccc3c(c2)nc(C)n3C)c1 35.6%
COc1cc(-c2cc(=O)c3c(O)c(OC)c(OC)c(O)c3o2)ccc1O 66.3%
Cc1ccc(Nc2c(-c3ccccn3)nc3cc(C)ccn23)cc1 66.4%
Oc1ccc(C=NNC(=S)Nc2ccc(F)cc2)c(O)c1 34.6%
COc1cccc(CNc2ccc3[nH]c(=O)[nH]c3c2)c1OCc1ccccc1 66.6%
CN(C)c1ccc(N2CC(C)(C)C2=O)cc1 55.3%
